# Test results published in the supplement of paper PMC4166925.
# ± gives the standard deviation of the averaged measurements. The full ranking holds about 33,000 sequences; the median of “E-score (dimensionless, -0.5 to 0.5)” is about -0.049, and the highest 2% start at about 0.37. The list shows a part of the results.
# Tested on: T1, PmTbr T-box DNA-binding domain (GST fusion)
# T1 sequence: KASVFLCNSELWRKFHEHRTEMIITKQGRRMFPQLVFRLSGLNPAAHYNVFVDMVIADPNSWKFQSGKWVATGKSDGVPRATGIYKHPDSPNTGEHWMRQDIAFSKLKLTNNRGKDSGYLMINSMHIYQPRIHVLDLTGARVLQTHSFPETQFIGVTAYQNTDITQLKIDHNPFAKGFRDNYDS
# Experiment: PBM E-score of 8-mer (E-score (dimensionless, -0.5 to 0.5)); Tbr is Tbrain of the sea star Patiria miniata (Pm) or the sea urchin Strongylocentrotus purpuratus (Sp); higher = stronger binding preference; most listed sequences are background and not binding sites
# Settings: the construct has about 5 more residues each side
# Outline: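 Universal Agilent oligonucleotide arrays, made double-stranded by primer extension, were incubated with 200 nM GST-fused Tbr T-box DNA-binding domain in PBS (pH 7.5). The protein was expressed in BL21 E. coli at 20 °C and purified by glutathione affinity chromatography. After scanning and quantification, the Universal PBM Analysis Suite assigned an enrichment E-score to each ungapped 8-mer, averaged over duplicate arrays.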
row,Sequence,PBM E-score of 8-mer
1,AGTTAGGG,-0.128 ± 0.021
2,CCCGTTCC,-0.0429 ± 0.011
3,AAACTTAA,-0.075 ± 0.092
4,AATAGGAG,-0.292 ± 0.0088
5,GACGCAGC,-0.0729 ± 0.018
6,TAGAAAGA,-0.238 ± 0.0053
7,AGAAGCGC,0.115 ± 0.05
8,AATTGAAG,-0.274 ± 0.11
9,ACTAGGAG,-0.0412 ± 0.067
10,ACTCTTAC,-0.0593 ± 0.074
11,CGGTCCGA,-0.184 ± 0.019
12,AAGTGTAG,0.147 ± 0.012
13,AAAAAGTG,0.23 ± 0.066
14,GTGTACGA,-0.00033 ± 0.037
15,ACAAGCAC,0.0252 ± 0.13
16,GCCCAGAC,-0.0954 ± 0.024
17,CCTGAAAA,0.0211 ± 0.0084
18,ATAGTGAT,0.043 ± 0.0019
19,CCGGTCGC,0.163 ± 0.0025
20,AATAAGTA,-0.116 ± 0.028
21,AGATTTGA,-0.0282 ± 0.021
22,GCGCCCTA,0.108 ± 0.035
23,ATCTTTCA,-0.1677 ± 0.0002
24,AGTCTTGC,-0.118 ± 0.017
25,AGTCCAAC,0.0467 ± 0.027

row,Sequence,PBM E-score of 8-mer
1,GGGGTTCA,-0.0121 ± 0.033
2,AAGCCCTT,-0.17 ± 0.078
3,AGGGGACG,-0.174 ± 0.07
4,CATACCCA,-0.203 ± 0.081
5,CTGGTTCA,-0.0379 ± 0.045
6,AGAACAAC,-0.0883 ± 0.08
7,CGACACTA,0.32 ± 0.008
8,CATTTATA,-0.12 ± 0.061
9,GCCGTGGA,-0.126 ± 0.0073
10,ATCGAGAC,0.0206 ± 0.045
11,AGCCATAT,-0.145 ± 0.012
12,ATCGTGCA,-0.108 ± 0.049
13,CAGGTTCA,-0.0437 ± 0.0035
14,CTGGACTA,-0.303 ± 0.006
15,CGTGTGAA,0.4524 ± 0.0013
16,GCGATCTA,0.0135 ± 0.028
17,CCAAGGAG,-0.211 ± 0.0077
18,CTCTGGTC,-0.149 ± 0.043
19,AAGGCAGA,-0.18 ± 0.0043
20,GTCTCCAC,-0.18 ± 0.0097
21,CCCTATAA,-0.257 ± 0.0061
22,ACGTACTC,0.061 ± 0.028
23,TCCATAAA,-0.369 ± 0.028
24,CGATCCTC,0.066 ± 0.012
25,AGATAATC,-0.0612 ± 0.033

row,Sequence,PBM E-score of 8-mer
1,GATCCAGA,0.0926 ± 0.012
2,CAGCGATA,0.0152 ± 0.0054
3,AATGGTTA,0.00267 ± 0.13
4,CCACGCCG,-0.0498 ± 0.0044
5,AAGATTCA,-0.152 ± 0.029
6,AAGACTAT,-0.183 ± 0.075
7,CAGCCTAA,0.0947 ± 0.055
8,AAGGGACT,-0.124 ± 0.021
9,GACACAGA,0.0762 ± 0.007
10,ACGGACAC,0.21 ± 0.019
11,CTCCTCGA,-0.0253 ± 0.066
12,CTTCGCGC,0.3742 ± 0.0014
13,CAACACGG,0.0435 ± 0.063
14,CCAACTAC,0.0856 ± 0.023
15,CCATCGAG,0.00702 ± 0.096
16,TATTAATA,-0.273 ± 0.11
17,CCGCTCAG,-0.212 ± 0.064
18,CAACATAC,0.0872 ± 0.0058
19,GAGTGCGA,0.4088 ± 0.00055
20,CTTAAGCC,-0.241 ± 0.0091
21,ACTTCACA,0.336 ± 0.011
22,CCCAACGC,0.0381 ± 0.093
23,CAGAGCAG,-0.244 ± 0.0029
24,ACAAGAAT,-0.0283 ± 0.069
25,AATTGTAC,-0.0451 ± 0.065

row,Sequence,PBM E-score of 8-mer
1,ACGGCCCG,-0.0651 ± 0.0091
2,ACTCTCTC,0.0496 ± 0.02
3,ATGCGTTG,0.11 ± 0.014
4,ACTGTTTG,0.0389 ± 0.019
5,AGTATACA,-0.0608 ± 0.012
6,GACTTAAA,-0.121 ± 0.0051
7,CTGGGAAC,-0.14 ± 0.055
8,ACTTTGGA,-0.166 ± 0.038
9,GCATCCAC,-0.102 ± 0.042
10,GGTTTAAC,0.0736 ± 0.11
11,ACTGTCCG,-0.275 ± 0.0065
12,TACAACAA,-0.0713 ± 0.1
13,CGCTGAGA,0.0477 ± 0.064
14,TGCGTACA,-0.205 ± 0.051
15,CTGTGGTA,-0.0442 ± 0.0015
16,AACCTTAC,-0.000525 ± 0.043
17,GCCAGAAA,-0.08679 ± 0.0008
18,CCATATAC,-0.00383 ± 0.065
19,CAGCAGTC,-0.0727 ± 0.028
20,ACACTTCT,0.4266 ± 0.0042
21,AGGGCGGC,-0.2 ± 0.052
22,ATTGATAG,0.0055 ± 0.008
23,CTATGAAA,-0.228 ± 0.043
24,ATATAACA,0.243 ± 0.042
25,GACACCTA,0.48906 ± 2.8e-05

row,Sequence,PBM E-score of 8-mer
1,GTTCATAA,-0.225 ± 0.022
2,AATCTACC,-0.0821 ± 0.029
3,GTCTGTTA,0.119 ± 0.0093
4,AGGTACTG,-0.125 ± 0.028
5,GGGACCAC,-0.165 ± 0.049
6,ACGGAGAT,-0.0953 ± 0.071
7,AAATTAAC,0.232 ± 0.073
8,AGCCGATG,-0.0347 ± 0.075
9,ATTAGACA,0.02 ± 0.032
10,TTTCGAAA,-0.043 ± 0.016
11,CCTCGTTC,-0.0464 ± 0.075
12,TATTACGA,-0.2129 ± 0.0019
13,ATCAAACA,0.0103 ± 0.0023
14,AATCCCAA,-0.188 ± 0.021
15,ATATTGAT,-0.118 ± 0.046
16,CGGGGCCA,-0.187 ± 0.019
17,CACACCTA,0.476 ± 0.009
18,ACGCATAT,0.0664 ± 0.022
19,ACTGGCAT,-0.0401 ± 0.017
20,CAATTATG,0.0282 ± 0.02
21,CATGATAA,0.00808 ± 0.0014
22,CGGCTCAG,-0.202 ± 0.059
23,TGTAGACA,0.155 ± 0.1
24,ACGCATAG,0.0992 ± 0.0014
25,CTCGGAAC,-0.259 ± 0.019

row,Sequence,PBM E-score of 8-mer
1,ATCGTGTA,-0.14 ± 0.028
2,CTGTTCTA,-0.136 ± 0.0063
3,ACGCATCT,-0.0356 ± 0.006
4,GCATGTCC,-0.097 ± 0.13
5,CAGTCGCA,0.169 ± 0.0026
6,ACCGAATC,-0.0932 ± 0.028
7,ACAAGCGC,0.0753 ± 0.029
8,CTGCCACC,0.265 ± 0.036
9,ATTTTTGA,-0.289 ± 0.044
10,AAGTGGTA,0.165 ± 0.013
11,CCTCACCA,0.141 ± 0.045
12,AAGAAATG,-0.161 ± 0.024
13,AGGGCTCG,-0.125 ± 0.058
14,ACCGAGGG,0.0441 ± 0.022
15,CCCGGGTC,0.00596 ± 0.0038
16,AGCGCGGC,0.0949 ± 0.0084
17,CGGGTAAA,-0.0337 ± 0.08
18,CTACTCTA,-0.2 ± 0.083
19,ATTTGGTA,-0.178 ± 0.0095
20,CGATTAAA,0.00579 ± 0.034
21,GATCTGAC,0.0957 ± 0.015
22,AGCGTTCC,-0.107 ± 0.076
23,CTATTGAG,0.0803 ± 0.0095
24,GATTAATC,-0.211 ± 0.095
25,CATCCTCG,-0.0724 ± 0.083

row,Sequence,PBM E-score of 8-mer
1,ATATTATG,-0.0518 ± 0.081
2,GTCGCTAA,0.3037 ± 0.0026
3,ATATGCAA,-0.128 ± 0.015
4,AACTATTA,-0.0264 ± 0.0078
5,CTGGTCCC,-0.214 ± 0.037
6,CCAACGAG,-0.193 ± 0.013
7,ACTTAATG,-0.128 ± 0.047
8,CCTTAAAG,-0.0973 ± 0.022
9,ATACAGAA,-0.0182 ± 0.007
10,CATGGCGG,-0.215 ± 0.019
11,CCGTGGCG,-0.0151 ± 0.064
12,CATTTAGG,0.0158 ± 0.075
13,AGCTGGTG,0.0595 ± 0.015
14,GCTTCGGA,-0.0828 ± 0.0049
15,CCGTTCGA,-0.159 ± 0.081
16,CGCGGCTC,0.0723 ± 0.11
17,CTGCAGAA,-0.158 ± 0.056
18,GATTATGA,-0.224 ± 0.08
19,CAAGTTCA,0.114 ± 0.007
20,CAGATGCA,-0.0618 ± 0.0046
21,AACCACGA,-0.00436 ± 0.038
22,CATAACCC,-0.215 ± 0.015
